Some of the results follow. Shown are side measurements of this screen, not its main read-out; they come without a call. The list favours compounds with an active or inconclusive main result.

This experiment is described as follows: up-regulation of insulin promoter-GFP reporter – imaging, high-content screening, mouse beta cells (AID 1625).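 Further: total cells summed across four imaged fields per well.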 Conditions: MIN6 insulin promoter-GFP reporter, measured here: cytotoxicity, nuclei count, at 5 µM.
`COc1cc(NS(=O)(=O)c2ccc(C)cc2)c2ncccc2c1` displayed a cell count of 424 cells.
`COCCNc1nc2c(c(=O)n(C)c(=O)n2C)n1Cc1cccc(C(F)(F)F)c1` yielded a cell count of 478 cells.
`CCOC(=O)/C(=C/C=C1\Sc2cc(OCC)c(OCC)cc2N1CC)C(C)=O` showed a cell count of 1080 cells.
Molecule `CCCCCCCCn1c2c(c(=N)c3ccccc31)CCC2` came in with a cell count of 220 cells.
With `COCc1cc(C)nc(Nc2ccccc2C)c1C#N`, the cell count is 1150 cells.
Regarding `CCN1CCN(c2cc(-c3ccccc3)nc3cc(-c4cccc(F)c4)nn23)CC1`, the cell count was determined as 376 cells.
`CCN(CC)c1ccc(/C=C2/SC(=O)N(C(C)C)C2=O)o1` showed a cell count of 1220 cells.
`O=C(CNC(=O)C1CCCCC1)Nc1cc(Cl)ccc1Cl` registered a cell count of 485 cells.
Molecule `COc1cc(N2CCCC2)c(OC)cc1/C=C(/C#N)c1cccc(Br)c1` displayed a cell count of 1010 cells.
For `O=C(OCCN1C(=O)c2cccc3c(N4CCOCC4)ccc(c23)C1=O)c1ccc(Cl)cc1Cl` the value was 795 cells.
Consider `Cn1cc(/C=C2\SC(=S)N(NC(=O)c3ccccc3)C2=O)c2ccccc21`, for which the cell count came out at 1450 cells.
`CC1=NNC(=O)C1CCC(=O)N/N=C/c1ccc(C)cc1` (stereo not given) had a cell count of 1160 cells.
As for `Cc1ccc(-n2c(C)cc(C(=O)COC(=O)c3c(C)noc3C)c2C)cc1`, the cell count worked out at 477 cells.
`CC(=O)N1CCN(Cc2nc3cc(NC(=O)c4ccccc4)ccc3n2C)CC1` yielded a cell count of 1510 cells.
`Cc1ccc(C2CC(=O)NC(SCc3ccccc3)=C2C#N)o1` (stereo not given): the cell count is 966 cells.
As for `COc1cccc(OCCOCCOc2ccc(C)cc2[N+](=O)[O-])c1`, the cell count came to 396 cells.
The result for `Cc1ccc(-c2cn(-c3ccc(OC(F)F)cc3)c3[n+]2CCCCC3)cc1` reads 205 cells.
The result for `CC(C)OC(=O)CN1C(=O)S/C(=C/c2ccc(N3CCCCC3)o2)C1=O` reads 887 cells.
The molecule `c1ccc(-c2nnc(-c3ccccn3)nc2NC2CCCCC2)cc1` had a cell count of 137 cells.
Molecule `CC(=S)/C=C1\Sc2ccccc2N1C` returned a cell count of 473 cells.
In the case of `CCOC(=O)c1cnc(-n2nc(C)cc2C)nc1Nc1ccc(N(C)C)cc1`, the cell count is 342 cells.
The result for `CCOC(=O)c1c(CSc2nc(C)cc(C)c2C#N)n(C)c2cc(Br)c(OC(C)=O)cc12` reads 371 cells; that for `CC(C)n1c(-c2ccco2)csc1=Nc1cccnc1`, 477 cells.
In the case of `COc1ccc(C[C@H]2CN3C(=NC[C@@H]3Cc3ccc(O)cc3)N2C[C@H](C)NC(=O)c2ccc(C)c(Br)c2)cc1`, the cell count was found to be 347 cells.
In turn, `COc1ccc(NC(=O)C2Cc3ccccc3CN2C(=O)c2ccccc2)cn1` (stereo not given) showed a cell count of 456 cells.
In the case of `CC(=O)c1sc2nc(-c3cccs3)cc(C(F)(F)F)c2c1N`, the cell count was found to be 1320 cells.
`CC(=O)Nc1cccc(C(=O)/C=C/c2ccc(N(C)C)cc2)c1` yielded a cell count of 1240 cells.
For `CC(CCc1ccco1)NC(=O)c1cc2c(-c3ccccc3F)nn(C)c2s1` (stereo not given) the value was 364 cells.
In turn, `CC(C)n1c(NCc2cc(Cl)ccc2O)nc2ccccc21` registered a cell count of 342 cells.
As for `CC1=C([N+](=O)[O-])C(c2cccc(Br)c2)C2=C(N1)c1ccccc1C2=O` (stereo not given), the cell count was 456 cells.
In turn, `CC(=O)c1c(C)[nH]c(C(=O)Nc2ccc(C)cn2)c1C` returned a cell count of 375 cells.
Turning to `CC(C)(C)C(C(Oc1ccc(Cl)cc1)n1cncn1)n1nnnc1C(c1cccc(Cl)c1)N1CCCCC1` (stereo not given), the cell count was determined as 395 cells.
Regarding `Oc1ccc(CN2CCN(c3ccccc3)CC2)c2cccnc12`, the cell count was found to be 465 cells.
In the case of `CC(C)N1CC=C2C(C#N)=C(N)C(C#N)(C#N)C(c3ccccc3)C2C1` (stereo not given), the cell count stood at 1180 cells.
For `CC(C)(C)CC(C)(C)NC(=S)Nc1ccc2nc(-c3ccccn3)c(-c3ccccn3)nc2c1`, the cell count was 392 cells.
For `CCCN1C(=O)/C(=C/c2c(N3CCNC(=O)C3CC(=O)OCC)nc3c(C)cccn3c2=O)SC1=S` (stereo not given) the value was 1010 cells; for `CC1c2[nH]c3ccccc3c2CCN1C(=O)Nc1ccccc1` (stereo not given), 492 cells; for `COc1ccc(C(=O)/C=C/C(=O)N(CC(=O)NC2CCCCC2)Cc2cccs2)c(O)c1`, 358 cells.
`Cn1c(SCC(=O)N2CCCc3ccccc32)nc2ccccc2c1=O` yielded a cell count of 445 cells.
For the molecule `CCOC(=O)Cn1c(=O)c(-c2cc(Br)ccc2N)nc2ccccc21`, the cell count stood at 563 cells.
The molecule `Cc1cc(C)c(/C=N/n2c(C)cc(C)c(C#N)c2=O)c(C)c1` returned a cell count of 312 cells.
For the molecule `CCOCCCNc1nc2c(C)cccn2c(=O)c1/C=C1\SC(=S)N(CC(C)C)C1=O`, the cell count was 932 cells.
In the case of `CCOC(=O)C1=C(C)NC(=O)NC1c1ccc(N2CCC(c3ccccc3)=N2)cc1` (stereo not given), the cell count stood at 1280 cells.
In turn, `NCCNc1ccc([N+](=O)[O-])c(NC2CC2)c1` displayed a cell count of 491 cells.
On to `Nc1c(C(=O)c2cccs2)sc2nsc(SCCN3CCCCC3)c12`, for which the cell count turned out to be 1080 cells.
For `CC1CCN(S(=O)(=O)c2ccc3c(c2)C(=NO)c2cc(S(=O)(=O)N4CCC(C)CC4)ccc2-3)CC1` the value was 263 cells; for `O=C(Nc1ccc2c(c1)nc1n2CCCCC1)c1cc(S(=O)(=O)N2CCOCC2)ccc1Cl`, 265 cells; for `Cc1c(C(=O)NC(C)C)c(-c2ccccc2)nn1-c1ccccc1`, 364 cells.
The molecule `CCN(CC)c1ccc(/C=C/c2cc(-c3ccccc3)c3ccccc3n2)cc1` returned a cell count of 1240 cells.
Molecule `Cc1c2ccccc2nc2c(F)c(NC(C)C)c(F)c(F)c12` came in with a cell count of 1320 cells.
The result for `O=C(C1=C[C@H](C2CC2)C[C@H](OCCCCO)O1)N1CCN(Cc2ccccc2)CC1` reads 1480 cells; that for `CCCSc1nc2sc3c(c2c(=O)[nH]1)CCN(Cc1ccccc1)C3`, 1750 cells.
For `Cc1ccc2[nH]c3c(N4CCc5ccccc5C4)ncnc3c2c1` the value was 419 cells; for `CC1CC2(C)Oc3ccccc3CC2C(C)C1CNCCCN(C)C` (stereo not given), 376 cells; for `N#Cc1ccc(CSc2nnc(NC(=O)c3ccc4ncsc4c3)s2)cc1`, 1380 cells.
In turn, `CCOc1ccc(-n2c(SCC(=O)NC(C)CC)nc3n[nH]c(C)c3c2=N)cc1` (stereo not given) had a cell count of 1020 cells.
`CCCOc1nc2c(c(=O)n(C)c(=O)n2C)n1Cc1cccc2ccccc12` displayed a cell count of 341 cells.
Molecule `COCCNC(=O)Cc1ccc(F)cc1` returned a cell count of 1300 cells.
For `CCN1CC=C2C(C#N)=C(N)C(C#N)(C#N)C(c3cc(Cl)ccc3Cl)C2C1` (stereo not given) the value was 1200 cells.
The result for `COc1ccc(CN2C(=O)/C(=C/c3ccc(-c4ccc(Cl)c(C(=O)O)c4)o3)SC2=S)cc1` reads 1070 cells; that for `CC/C(=N\NC(=O)CCC(=O)NCc1ccccc1)c1ccc(O)cc1`, 476 cells; that for `COc1ccccc1NC(=O)N1CCN(c2cc(-c3ccccc3)nc3ncnn23)CC1`, 193 cells.
For `CC(C)(C)C(=O)Cn1ncc(Cl)c(Cl)c1=O`, the cell count was 234 cells.
In the case of `COc1ccc(-c2cc(C(F)(F)F)n3nc(C(=O)N4CCCCC4)cc3n2)cc1OC`, the cell count is 461 cells.
Consider `COc1ccc(/C=N/NC(=O)c2ccc(COCC(F)(F)C(F)F)cc2)cc1`, for which the cell count came out at 434 cells.
`COc1cc(N2CCCC2)c(OC)cc1/C=C(/C#N)c1cccc(F)c1`: the cell count is 619 cells.
For `Cc1ccc(-c2c[n+]3c(n2-c2ccccc2)SCC3)cc1` the value was 413 cells; for `CCOC(=O)c1cccc(NC(=O)c2cncc(Br)c2)c1`, 475 cells.
`COc1cccc(OC)c1OCCN(C)C`: the cell count turned out to be 763 cells.
Molecule `CCOC(=O)N1CCN(c2ncnc3c2[nH]c2ccc(F)cc23)CC1` gave a cell count of 314 cells.
`CCOC(=O)N1CCN(S(=O)(=O)c2ccc3c(c2)oc(=O)n3C)CC1` came in with a cell count of 1340 cells.
With `O=C(N/N=C/c1cc(Cl)ccc1O)C(=O)Nc1ccccc1OC(F)(F)C(F)F`, the cell count was found to be 450 cells.
Molecule `CCOC(=O)c1ccc(N=C2C(=S)N(c3ccc(C(=O)OCC)cc3)C(=N)N2/N=C/c2ccccc2)cc1` returned a cell count of 247 cells.
As to `COc1cccc(N2CCN(c3ncccn3)CC2)c1`, the cell count was 1410 cells.
As to `CCN1/C(=C/c2cc[n+](CCCS(=O)(=O)[O-])c3ccccc23)Sc2ccccc21`, the cell count stood at 1080 cells.
As for `Cc1csc(NC(=O)CN(C)S(=O)(=O)c2cccc3cccnc23)n1`, the cell count was found to be 766 cells.
Molecule `CC(C)(C)C(=O)Cn1ncc(Br)c(Br)c1=O` gave a cell count of 465 cells.
Take `Cc1cc(NC(=O)C2CC(c3ccc(F)cc3)=NO2)n(-c2ccccc2)n1` (stereo not given): the cell count is 277 cells.
Turning to `O=C(Nc1ccc(S(=O)(=O)N2CCCCC2)cc1)c1ccc(CN2CCOCC2)cc1`, the cell count was 480 cells.
The result for `N#CC(C#N)=NNc1ccc(S(=O)(=O)N2CCCC2)cc1` reads 344 cells; that for `Nc1c(C(=O)N/N=C/c2cccnc2)oc2nc(-c3ccccc3)cc(-c3ccco3)c12`, 965 cells.
`CCn1c2ccccc2c2nnc(SCC(=O)Nc3cc(C)on3)nc21`: the cell count came to 1360 cells.
Molecule `CC(C)(C)c1ccc(NC(=O)COc2ccc(-n3ccnc3)cc2)cc1` had a cell count of 453 cells.
For the molecule `N#Cc1c2c(c(-n3cnc4ccccc43)n3c1nc1ccccc13)CCC2`, the cell count was 1450 cells.
For `O=C(N=C1SCC(=O)N1c1ccccc1Cl)c1ccccc1` the value was 1390 cells; for `CCOC(=O)C1CCN(c2c(NCCCN3CCN(Cc4ccccc4)CC3)c(=O)c2=O)CC1`, 434 cells; for `CC(=O)Nc1ccccc1NC(=O)CC(C)(C)C`, 412 cells.
`C=CCN1C(=O)/C(=C\C=C2\N(C)c3ccccc3C2(C)C)SC1=S` showed a cell count of 1190 cells.
Turning to `N#CC1=C(N)C(C#N)(C#N)[C@H](c2ccoc2)[C@H]2CN(Cc3ccccc3)CC=C12`, the cell count was 843 cells.
In turn, `CCOC(=O)c1ccc2c(c1)n(CC)c(/C=C/N(C)c1ccccc1)[n+]2CC` gave a cell count of 379 cells.
For `CC1CCN(c2ncnc3ccccc23)CC1` the value was 404 cells.
Turning to `Cc1n[nH]c(C)c1N1C(=O)c2cccc3c(N4CCCCCC4)ccc(c23)C1=O`, the cell count came out at 908 cells.
Molecule `COc1ccc(-c2c[n+](CC(=O)c3ccccc3)c3n2CCCCC3)cc1` gave a cell count of 439 cells.
In the case of `Cc1cc(C)c(C#N)c(SCC2COc3ccccc3O2)n1` (stereo not given), the cell count is 1070 cells.
For `CCOC(=O)c1ccc(S(=O)(=O)Nc2ccccc2-c2nnn(CC)n2)cc1`, the cell count worked out at 295 cells.
The molecule `CN(C)S(=O)(=O)c1ccc(NC(=O)c2cc(-c3cccs3)nc3ccccc23)cc1` had a cell count of 347 cells.
For `O=c1ccc(NS(=O)(=O)c2ccccc2)cn1Cc1ccc(Cl)c(Cl)c1` the value was 1480 cells; for `COc1cc(NC(=O)Cn2ncc(Cl)c(Cl)c2=O)c(C)cc1[N+](=O)[O-]`, 208 cells; for `COc1ccc2c(c1)sc(=N)n2C`, 466 cells.
For `COc1ccc(Cn2c(-c3ccc(C)cc3)c[n+]3ccccc23)cc1` the value was 498 cells; for `CC1CCc2c(sc3nn[nH]c(=O)c23)C1` (stereo not given), 1260 cells; for `C=CC[n+]1c(/C=C2\C=Cc3cc(C)ccc3N2CC)ccc2ccccc21`, 334 cells.
For `COc1cc([N+](=O)[O-])ccc1-c1ccc(/C=N/NC(N)=O)o1` the value was 896 cells; for `O=C(NC1CCCC1)c1cc(COc2ccc3ncccc3c2)on1`, 462 cells; for `CC(C)c1ccc(/C=C/C(=O)Nc2nncs2)cc1`, 436 cells.

The values are drawn from PubChem BioAssay AID1625 (Sanford-Burnham Center for Chemical Genomics, 2009).
